± gives the standard error. Variants at the background level are over-represented here.
B1: glmS ribozyme (parent)
chain: AUAAAAGCGCCAGAACUACAGAAAUGUAGUUGACGAGGAGGAGGUUUAUCGAAUUUUCGGCGGAUGCCUCCAAA

Experiments:
Settings in all cases: with glucosamine-6-phosphate
glucosamine-6-phosphate [1] = variants of: B1; assay: self-cleavage kobs at 40 uM GlcN6P; higher = faster cleavage; RNA array
Outline: (§1)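 On sequenced MiSeq chips, barcoded ribozyme variants were made in situ by E. coli RNA polymerase and followed at 37 °C through a hybridised Cy3 probe. Glucosamine-6-phosphate was flowed in at 40 μM to 10 mM in HEPES/KCl/Mg(OAc)2 buffer. Exponential fits to normalised per-tile medians gave kobs, and weighted Michaelis–Menten fits gave kcat and KM.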

glucosamine-6-phosphate [2] = variants of: B1; assay: self-cleavage kobs at 640 uM GlcN6P; higher = faster cleavage; RNA array
Outline: as §1

glucosamine-6-phosphate [3] = variants of: B1; assay: self-cleavage kobs at 160 uM GlcN6P; higher = faster cleavage; RNA array
Outline: as §1

glucosamine-6-phosphate [4] = variants of: B1; assay: self-cleavage kobs at 2500 uM GlcN6P; higher = faster cleavage; RNA array
Outline: as §1

glucosamine-6-phosphate [5] = variants of: B1; assay: self-cleavage kobs at 10000 uM GlcN6P; higher = faster cleavage; RNA array
Outline: as §1

Row | Variant | self-cleavage kobs at 40 uM GlcN6P (glucosamine-6-phosphate [1]) | self-cleavage kobs at 640 uM GlcN6P (glucosamine-6-phosphate [2]) | self-cleavage kobs at 160 uM GlcN6P (glucosamine-6-phosphate [3]) | self-cleavage kobs at 2500 uM GlcN6P (glucosamine-6-phosphate [4]) | self-cleavage kobs at 10000 uM GlcN6P (glucosamine-6-phosphate [5])
1 | G40A U69G | < 1e-05 s⁻¹ | < 1e-05 s⁻¹ | < 1e-05 s⁻¹ | < 1e-05 s⁻¹ | < 1e-05 s⁻¹
2 | G41C C58A | < 1e-05 s⁻¹ |  | < 1e-05 s⁻¹ |  | < 1e-05 s⁻¹
3 | A39C U56A | 5.87e-05 ± 1.3e-05 s⁻¹ | 0.000412 ± 5.2e-05 s⁻¹ | 0.000129 ± 3.6e-05 s⁻¹ |  | 
4 | G40U G41C U47C C68A | < 1e-05 s⁻¹ |  |  |  | < 1e-05 s⁻¹
5 | G40U G62U | < 1e-05 s⁻¹ | < 1e-05 s⁻¹ | < 1e-05 s⁻¹ | < 1e-05 s⁻¹ | < 1e-05 s⁻¹
6 | G38U G40A A42C C61A U65C | < 1e-05 s⁻¹ |  |  |  | < 1e-05 s⁻¹
7 | G41A C50U | < 1e-05 s⁻¹ | < 1e-05 s⁻¹ | < 1e-05 s⁻¹ | < 1e-05 s⁻¹ | < 1e-05 s⁻¹
8 | A39G A52C | < 1e-05 s⁻¹ |  | < 1e-05 s⁻¹ |  | 2.99e-05 ± 1.2e-05 s⁻¹
9 | G40A C71G | 0.000326 ± 5.2e-05 s⁻¹ |  |  |  | 
10 | G41C C50A | < 1e-05 s⁻¹ | < 1e-05 s⁻¹ | < 1e-05 s⁻¹ | < 1e-05 s⁻¹ | < 1e-05 s⁻¹
11 | A39U U56C | 3.9e-05 ± 8.2e-06 s⁻¹ |  |  |  | 
12 | A39U U56G | 0.000177 ± 2.7e-05 s⁻¹ |  |  |  | 
13 | G40U G51A U54A A64U | < 1e-05 s⁻¹ |  |  |  | 
14 | G38U U47G | < 1e-05 s⁻¹ |  |  |  | 
15 | G38C G41A G43U G44C C50G | < 1e-05 s⁻¹ |  |  |  | < 1e-05 s⁻¹
16 | G41A G43A U49G C70G | < 1e-05 s⁻¹ |  |  |  | < 1e-05 s⁻¹
17 | G38A G59A U69A | < 1e-05 s⁻¹ |  |  | < 1e-05 s⁻¹ | < 1e-05 s⁻¹
18 | G38A U47A | < 1e-05 s⁻¹ |  | < 1e-05 s⁻¹ | < 1e-05 s⁻¹ | < 1e-05 s⁻¹
19 | A39U A53C G62A C68U | < 1e-05 s⁻¹ |  |  |  | < 1e-05 s⁻¹
20 | A39U C68U | 0.000444 ± 8.6e-05 s⁻¹ | 0.00309 ± 0.00026 s⁻¹ | 0.000829 ± 9e-05 s⁻¹ | 0.00636 ± 0.00063 s⁻¹ | 0.00694 ± 0.0011 s⁻¹
21 | A39U G40U C70U | 9.82e-05 ± 1.8e-05 s⁻¹ |  | 0.000392 ± 6.8e-05 s⁻¹ |  | 
22 | G41A C50A U57A | < 1e-05 s⁻¹ |  | < 1e-05 s⁻¹ | < 1e-05 s⁻¹ | < 1e-05 s⁻¹
23 | G41C G63A C68A C70G | < 1e-05 s⁻¹ |  |  |  | 
24 | G38U U55G C67U | < 1e-05 s⁻¹ |  |  | < 1e-05 s⁻¹ | < 1e-05 s⁻¹
